83 variants from the RNAGym collection of RNA variant scans (doi:10.7554/elife.90254) can be followed below.

The source gives no read counts; variants with many changes may rest on few reads.

The labels stand for the following.
B1: OR4K15 (parent)
chain: GUUAACGGUCAUAGGCCAUGGAAACUAGGAGCACCAUUUCGCUGCCAGUGAAGAAAUGAACAAAGAAAAUCUGGGCCAGGCAGGCAUCAAAAGAAAUAGUCUUGCGCUCAACCAGAAAGUCUGUAAUCAUUUUAAGGGUA

In this series the parent is B1. The series is described as follows: self-cleavage, relative activity (ratio to wild type); higher = more cleavage; in vitro, sequencing; the parent is a self-cleaving ribozyme.
Take U2A A18U U87A U97C U139C: the self-cleavage came to 0.79.
In the case of U2C A24G A94G it was 1.7; in that of U2C U3C U9C U120A, 1.23.
In the case of U2C U19C G83A C88A U102C U133A, the self-cleavage turned out to be 0.31.
Consider U2C A69U U87C, for which the self-cleavage amounted to 1.8.
In the case of U2C G20A U26C A33G U37C C40U A94G it was 0.15.
Next, U2C G73A A96G U130C: 0.09; U2C A5G A30G G74A: 0.2.
On to U2C U12C A24C A68G, for which the self-cleavage is 1.05.
In the case of U2C C17U U39C A94G U103C A129G it was 0.23.
Regarding U2C A23G A59G A118U, the self-cleavage came to 0.31.
Next, U2A U38G A47U A54G: 0.5; U2C U9C A23G A33G A69G A91G: 0.5.
Next, U2A A30U U57C A89G: 1.34.
Next, U2C A24G A33G A54G A68U: 1.27.
As for U2A A33G U49C, the self-cleavage is 0.75.
In the case of U2C C46U A55G A62G it was 1.42; in that of U2C A11G U26C U38C U39C U87A A111U, 0.1.
In the case of U2C A13U A24G U39A it was 0.95; in that of U2G A56G A64G U97G, 1.44.
Regarding U2C U9C A110G, the self-cleavage stood at 0.38.
In the case of U2C A62G G83U A114G U120C U127A it was 0.07; in that of U2A A33G U38C C121A, 1.61.
For U2C A52G A63G A129G, the self-cleavage amounted to 0.5.
For U2C A18G U19A U122A U130C, the self-cleavage is 0.61.
In the case of U2A A27G A118G U120A, the self-cleavage came to 1.75.
Turning to U2C U19C A55G, the self-cleavage stood at 0.07.
As for U2A U3A A24C A116G U130C, the self-cleavage is 0.72.
Next, U2C A36G A63G A68G A91G: 0.5.
Next, U2C A60G A69G: 1.04; U2C A11U U39C U130C: 1.13; U2C A62U A129G: 1.02.
Next, U2C A95G U108A U132C: 0.02; U2C C35A A82G A94G: 0.64; U2A U9C A69G U102C G106A: 0.02.
Consider U2C A89U U139A, for which the self-cleavage is 0.4.
In the case of U2C A111G U139C it was 0.02; in that of G1A U37C A64G A92G U100C, 2.2; in that of U2A A18G G58A, 1.02.
Next, G1A A60U A69C U103C: 1.2; G1C A118G U132C: 0.85; U2C U37C A54G U130C: 0.73.
In the case of U2C A33G A111G it was 0.04; in that of U2A U43C A54G A63G, 1.65; in that of U2C U49A A51G A78U U100C, 0.94.
Consider U2C A30G A91G, for which the self-cleavage was 0.74.
As for U2C A23G A56G A62G, the self-cleavage came to 1.03.
As to U2C A33G A67U, the self-cleavage worked out at 0.51.
In the case of G1U A59G U100C it was 1.02; in that of U2C G41A A52G A129G A140G, 1.58.
Next, U2C G14A C40U A67G A96G: 0.97.
Next, U2C A54U A90G: 0.45; U2C A36C G41U A62G A67U C88A: 1.27; U2C A18U A27G A52G A82U A89G A117G: 0.17.
As to U2A U12A A96U, the self-cleavage is 1.19.
Next, U2C A54G A78G A118G: 0.2; U2C A68G U108C: 0.03; U2C G21A G74A U130C: 0.3.
As to G1U A18G A63G, the self-cleavage was 0.77.
In the case of U2C A5G A36G A92U U97C U132C it was 0.28.
Next, U2C U38C A86G U122C: 0.93; U2C U49A U87C U108A: 0.06.
Next, G1A A5G A67G A116U: 0.39.
For U2C A63G A91U, the self-cleavage is 0.76.
With U2C G83U U122G U130C, the self-cleavage came to 0.35.
Next, G1A A13G A52U U72C U127C: 0.2; U2C A30G A95G A111G: 0; U2C A13U A69G A96G A135G: 1.15.
In the case of U2C C46U A95G G106A U108C it was 0.01.
Take U2C A89G A126G U132C: the self-cleavage worked out at 0.26.
In the case of U2C A30U U57C A59G A69G A95G it was 0.66.
Next, U2C U102A U103C A111G: 0.02; U2C A51G A82G A114U: 0.07.
Consider U2C C77U A114U, for which the self-cleavage stood at 0.09.
In the case of U2C C32A A90U it was 1.07; in that of U2C A18G U39C U100A, 1.35.
In the case of U2A A23G U70C G84A it was 1.26.
Take U2C C17U U37C A117G A135U: the self-cleavage came out at 1.38.
Next, U2C U49C A66G A68G U127C A129G: 0.32; U2C A5G A92G A117U: 0.44; U2C A13G A54G U120C U139C: 0.05.
In the case of U2A U19C A22G A51G it was 0.96; in that of U2C U3C U19C A62U A68G, 0.55.
